In publication PMC4336329 (PLoS ONE, 2015):
Hit rate of the full screen: of about 310,000 compounds, about 2,200 (0.71%) showed an effect of 50% or more. The effect is printed as a negative number. The list shows a part of the results.

What follows are molecules tested against human ether-à-go-go-related gene (hERG) potassium channel (human, UniProt Q12809) (assay: primary screen, population patch clamp on CHO cells stably expressing hERG).
Chain of human ether-à-go-go-related gene (hERG) potassium channel (Q12809 whole entry, looked up): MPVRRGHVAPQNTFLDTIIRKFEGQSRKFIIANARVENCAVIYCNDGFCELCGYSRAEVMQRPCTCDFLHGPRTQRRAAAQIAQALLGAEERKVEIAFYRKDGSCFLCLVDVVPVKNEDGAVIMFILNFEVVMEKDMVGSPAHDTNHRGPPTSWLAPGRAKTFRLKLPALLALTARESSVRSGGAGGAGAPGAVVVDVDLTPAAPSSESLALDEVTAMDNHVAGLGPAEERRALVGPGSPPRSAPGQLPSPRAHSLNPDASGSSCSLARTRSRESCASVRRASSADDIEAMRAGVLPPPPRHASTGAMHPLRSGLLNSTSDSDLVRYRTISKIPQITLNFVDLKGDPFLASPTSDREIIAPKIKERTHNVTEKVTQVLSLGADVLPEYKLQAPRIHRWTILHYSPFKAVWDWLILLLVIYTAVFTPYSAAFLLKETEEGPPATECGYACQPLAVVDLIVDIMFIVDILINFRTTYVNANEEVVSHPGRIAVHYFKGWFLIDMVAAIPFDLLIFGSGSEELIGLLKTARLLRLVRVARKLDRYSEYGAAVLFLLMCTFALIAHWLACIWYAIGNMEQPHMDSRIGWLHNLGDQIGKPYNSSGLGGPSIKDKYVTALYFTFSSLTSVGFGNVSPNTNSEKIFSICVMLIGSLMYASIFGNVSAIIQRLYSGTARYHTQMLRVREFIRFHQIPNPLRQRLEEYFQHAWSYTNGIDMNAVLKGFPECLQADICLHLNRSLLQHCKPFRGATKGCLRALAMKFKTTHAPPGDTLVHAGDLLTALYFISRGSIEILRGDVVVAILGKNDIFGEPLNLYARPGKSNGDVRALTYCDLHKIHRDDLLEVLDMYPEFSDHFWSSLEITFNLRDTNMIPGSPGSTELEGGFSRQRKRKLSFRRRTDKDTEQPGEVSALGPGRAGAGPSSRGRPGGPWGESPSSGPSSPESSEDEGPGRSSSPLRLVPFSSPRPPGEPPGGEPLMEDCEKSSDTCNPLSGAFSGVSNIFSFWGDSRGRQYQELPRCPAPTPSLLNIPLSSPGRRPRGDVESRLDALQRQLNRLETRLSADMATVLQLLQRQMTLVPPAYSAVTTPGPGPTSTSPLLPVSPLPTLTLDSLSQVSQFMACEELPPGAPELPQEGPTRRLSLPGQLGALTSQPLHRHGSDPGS

SMILES | hERG current change (%, negative = inhibition) at 1uM [%]
COc1ccccc1C(c1nnnn1C(C)(C)C)N1CCN(Cc2ccncc2)CC1 (centres unmarked) | 10.2
CN(C)c1cc[n+](CC(=O)Nc2cccc([N+](=O)[O-])c2)cc1.[Cl-] | 13.1
CCC(C)(C)NC(=O)c1cc(S(=O)(=O)N2CCCCC2)ccc1N1CCOCC1 | 5.04
CCN(C(=O)c1c(C)noc1C)c1c(N)n(Cc2ccccc2)c(=O)[nH]c1=O | 9.94
COc1cc(C(=O)Oc2ccc3ccc(O)cc3c2)cc(OC)c1OC | 7.69
Nc1ccc(-n2nncc2-c2ccccc2)cc1 | 9.76
CCCCC[C@H]1CN(C2CCCCC2)C(=O)[C@@H]1CC(=O)NCc1ccccc1 | -13.9
O=C(CSc1nnc(-c2ccccc2)n1-c1ccccc1)N1c2ccccc2Sc2ccccc21 | 8.4
O=S(=O)(Nc1ccc(N2CCCCC2)cc1)c1ccccc1 | -2.09
O=C1CCC(C(=O)N2CCCCCCC2)CN1Cc1cccc(C(F)(F)F)c1 (centres unmarked) | 4.81
COc1ccccc1C(=O)NCCC(=O)NC(C)CCc1ccccc1 (centres unmarked) | 5.17
COc1cc(NC(=O)N[C@@H](Cc2c[nH]c3ccccc23)C(=O)O)c(C(=O)O)cc1OC | 14.1
CCOc1ccc(NC(=O)NC23CC4CC(CC(C4)C2)C3)cc1 | 3.43
CCOC(=O)C1(Cc2ccc(Cl)cc2)CCN(C(C)Cc2ccc(O)c(OC)c2)CC1 (centres unmarked) | -7.39
COc1ccc(C(=O)N2CC3(C)C4CCC3(C)C2(C#N)C4)cc1OC (centres unmarked) | 2.85
C/C(CC1CC(C)OC1=O)=N\NC(N)=S (centres unmarked) | 10.9
CCC(C)[C@H](NC(=O)OC(C)(C)C)C(=O)N/N=C/C1=Cc2ccccc2OC1 (some centres unmarked) | -5.83
COc1ccc(N2C(=O)C(CC(=O)Nc3ccc(F)cc3)N(CCc3cccs3)C2=O)cc1 (centres unmarked) | 12
COc1ccc2cc1Oc1ccc(cc1)C[C@H]1c3c(cc4c(c3Oc3cc5c(cc3OC)CCN(C)[C@@H]5C2)OCO4)CCN1C | 0.351
Cc1cccc(N2C(=O)C3C4CC(=O)C(c5ccccc54)C3C2=O)c1C (centres unmarked) | 6.33
CS(=O)(=O)N(CC(=O)NCc1ccccc1)C1CCCCC1 | -0.528
Cc1cc(OCCCn2ccnc2)cc(C(C)C)c1 | 11.1
Cc1ccc(S(=O)(=O)N(C)C)cc1NC(=O)C(C)OC(=O)C1CCCC1 (centres unmarked) | -24.6

SMILES | hERG current change (%, negative = inhibition) at 1uM [%]
CCOc1cc(/C=N/NC(=O)CSc2nnc(C)s2)ccc1OCc1ccccc1Cl | 6.83
CNc1ncc(C(=O)c2ccc(Cl)cc2)s1 | 3.44
Cn1c(=O)c(=O)n(C)c2cc(N3CCOCC3)c(NS(=O)(=O)c3ccc(Br)cc3)cc21 | 7.16
Cc1onc(-c2ccccc2Cl)c1C(=O)NCc1ccc(S(N)(=O)=O)cc1 | 15.5
CCOc1ccc(Nc2nc(N)nc(CSC(=S)N3CCOCC3)n2)cc1 | 0.127
CCCCOC(=O)C1CN(c2ccccc2)N=C1C(=O)OCC (centres unmarked) | 10.5
CCOc1ccc(N(C)C(=O)CCc2nnc3ccc(NCc4ccco4)nn23)cc1 | 12.7
O=C(Nc1ccc(OCC(=O)N2CCOCC2)cc1)c1cc(F)c(F)cc1Cl | 16.1
C/C(Cc1ccccc1)=N\NC(=O)c1cc(C(C)(C)C)[nH]n1 | 11.4
CSc1nc(SCC(N)=O)c2c3c(sc2n1)CN(C)CC3 | 5.66
COCC(=O)Nc1cc(=O)n(C)c(=O)n1C | 8.4
Cc1ccc(-c2nc3ncccc3o2)cc1N | 14.2
CCCc1cc(=O)oc2c(C)c(O[C@@H]3O[C@H](CO)[C@@H](O)[C@H](O)[C@H]3O)ccc12 | 11.6
CC(C)(O)P(=O)(O)CCc1ccccc1 | 20.4
Cc1ccccc1OCC(=O)N/N=C/c1cn(Cc2ccccc2)c2ccccc12 | 8.75
O=C(CCSc1nnc(-c2ccco2)o1)Nc1ccccc1 | 3.65
CC(C)CC(NC(=O)C(NC(=O)C1OC2OC(C)(C)OC2C2OC(C)(C)OC12)C(C)C)C(=O)O (centres unmarked) | 12
Cc1ccc2sc(N(CCCN(C)C)C(=O)c3ccc(S(=O)(=O)N4CCCCCC4)cc3)nc2c1C.Cl | 7.51
O=C(NC(CC1CCCCC1)C(=O)O)c1ccccc1 (centres unmarked) | 12.1
Fc1ccccc1Cc1noc(CN2CCN(C/C=C/c3ccccc3)CC2)n1 | -40.3
Cn1c(SCC(=O)N2CCCCC2)nnc1-c1ccc(S(=O)(=O)N2CCOCC2)cc1 | -14.4
CCN(CC)CCNC(=O)Cn1cnc2sc(C)c(S(=O)(=O)N3CCOCC3)c2c1=O | 11.4
O=[N+]([O-])c1ccc(N2CCN(c3ccc(F)cc3)CC2)cc1 | 5.71

SMILES | hERG current change (%, negative = inhibition) at 1uM [%]
CC(C(=O)Nc1cc(Cl)cc(Cl)c1)N1CCCC1 (centres unmarked) | 15.1
CCCn1c(CCc2ccccc2)nnc1SCC(=O)N1CCCC1 | -4.96
COc1ccc(-c2csc(Nc3cccnc3)n2)cc1OC | 9.42
CC(=O)Nc1nccc(-c2cc(-c3ccccc3)no2)n1 | 10.6
COC(=O)c1ccc(N)c(N=CC2=C(O)CC(C)(C)CC2=O)c1 | 12.2
CCOc1ccc(C(=O)OCC(=O)N2CC(C)OC(C)C2)cc1OCC (centres unmarked) | 13.1
O=C(OCC(=O)N1CCc2ccccc21)c1ccccc1F | 11.6
O=C(c1ccco1)N1CCC(c2nc(-c3ccc(F)cc3)no2)CC1 | -29.8
COc1ccc(C(=O)C2CCCN(S(=O)(=O)C(C)C)C2)c(C)c1 (centres unmarked) | 6.13
COc1cccc(C(=O)Nc2cccc3cccnc23)c1OC | 19.1
Cn1c(C(=O)OCC(=O)NCCc2ccccc2)cc2sccc21 | 2
CN1CCN(S(=O)(=O)c2ccc3c(c2)C(C)(C)C(=O)N3C)CC1 | 14.3
Nc1nc(-c2ccc(Cl)cc2)cn1N | 4.16
CCOc1ccc(N(CC(=O)Nc2nccs2)S(=O)(=O)c2c(C)noc2C)cc1 | -7.09
Cc1ccc(/C=C(/NC(=O)c2ccccc2)C(=O)NC(Cc2c[nH]c3ccccc23)C(=O)O)cc1 (centres unmarked) | 8.26
COc1ccccc1C1CCN(C(=O)c2ccc(Cl)cc2)CC1 | 7.51
CC1=NN(c2ccccc2)C(=O)/C1=C/c1c(O)n(-c2ccc(F)cc2)[nH]c1=O | 32.1
CCN(CC)CCCN(Cc1cc2cc(OC)ccc2[nH]c1=O)C(=O)Nc1ccccc1 | -10.1
CCCCCCSc1nsc(NC(C)=O)n1 | 5.78
Cc1cccc(NC2=C(NCCO)C(=O)c3ccccc3C2=O)c1 | 5.16
CCOC(=O)c1c(C)[nH]c(C)c1C(=O)COC(=O)c1cccc(S(=O)(=O)NC)c1 | 8.39
CN(C)C1=NC(N(C)C)=NP(N(C)C)(N(C)C)=N1 | 14.1
CCN(CC)CC(=O)Nn1c(C)nc2c(ncn2-c2ccccc2)c1=O | 9.39

SMILES | hERG current change (%, negative = inhibition) at 1uM [%]
Cc1cc(C)n(CC(=O)n2c3c(c4ccccc42)CCCC3)n1 | 9.96
COc1ccc(NS(=O)(=O)c2cccc(NC(=O)COc3ccc(OC)cc3)c2)cc1 | 12.2
O=C(Nc1ccc2ncccc2c1)c1ccccc1Br | 13.5
CCOc1ccc(/C=N/NC(=O)c2cc3c(OC)cccc3[nH]2)cc1 | 12.4
Cc1[nH]nc(N)c1-c1ccc(Cl)cc1 | 3.97
CC1Cc2ccccc2N1C(=S)NC(=O)c1ccc(Cl)cc1Cl (centres unmarked) | 1.56
Cc1nc(NCCc2ccccc2)sc1C(=O)N(C)C | 7.75
Cc1nc2c3ccccc3nc(NNC(=O)CCC(=O)N3CCC(C)CC3)n2n1 | 22.2
Cc1ccc(Cl)cc1-n1c(O)c(C=NCCCN2CCOCC2)c(=O)[nH]c1=O | 12.1
CCOC(=O)c1ccc(NC(=S)Nc2cccc(N)n2)cc1 | 15.5
COC(=O)c1cc(C#N)c(Oc2ccccc2OC)nc1C | 3.34
CCOc1cc(/C=C2\SC(=N)N(c3nonc3N)C2=O)ccc1OCCN1CCOCC1 | 14.5
Cc1c(NC(=O)c2cc(-c3ccccc3)on2)c(=O)n(-c2ccccc2)n1C | 2.95
Cc1ccccc1Cn1cnc2ccccc21 | 6.15
COc1ccc(N2CCN(CCNC(=O)CCCn3c(=O)[nH]c4cc(Cl)ccc4c3=O)CC2)cc1 | 2.84
O=C(CNc1ccc(Br)cc1)NNC1=NCCC1 | 3.45
O=C(N/N=C/c1ccccc1OCc1ccccc1)c1cccnc1 | 11.1
Cc1noc(C)c1COC(=O)c1ccc(S(=O)(=O)NCc2ccco2)cc1 | -1.54
CC(=O)Nc1nnc(SCC(=O)N2CCc3ccccc32)s1 | 18.1
O=C(NNc1nc2c(F)cccc2s1)c1ccccc1 | 14.5
